# Test results as given in PubChem BioAssay (NCATS).
# Inconclusive means that the source gave no clear call. Such entries were picked first, then a sample of the others. For some of these results: Potencies beside an inconclusive call are fits to weak or partial responses and may not hold up. Calls of active or inactive are those of the source. Calls follow the shape of the dose curve; as a rule, active = well fitted curve in the direction sought with a large enough effect; inconclusive = small, poorly fitted or top-dose-only effect, or another doubt; inactive = no such curve, though single readings can be large; an effect the other way counts as inactive or inconclusive.
# Key:
# [1] = target: Cytochrome P450 2C19 (Homo sapiens) (UniProt P33261); assay: qHTS Assay for Inhibitors and Substrates of Cytochrome P450 2C19 (AID 899); also: top concentration of the series differs between compounds; % is scaled to controls: 0 for no effect and ±100 for the full control effect; nearly all actives have a fitted effect of over 60% in size
# Sequence of UniProt P33261 (P33261 whole entry, looked up): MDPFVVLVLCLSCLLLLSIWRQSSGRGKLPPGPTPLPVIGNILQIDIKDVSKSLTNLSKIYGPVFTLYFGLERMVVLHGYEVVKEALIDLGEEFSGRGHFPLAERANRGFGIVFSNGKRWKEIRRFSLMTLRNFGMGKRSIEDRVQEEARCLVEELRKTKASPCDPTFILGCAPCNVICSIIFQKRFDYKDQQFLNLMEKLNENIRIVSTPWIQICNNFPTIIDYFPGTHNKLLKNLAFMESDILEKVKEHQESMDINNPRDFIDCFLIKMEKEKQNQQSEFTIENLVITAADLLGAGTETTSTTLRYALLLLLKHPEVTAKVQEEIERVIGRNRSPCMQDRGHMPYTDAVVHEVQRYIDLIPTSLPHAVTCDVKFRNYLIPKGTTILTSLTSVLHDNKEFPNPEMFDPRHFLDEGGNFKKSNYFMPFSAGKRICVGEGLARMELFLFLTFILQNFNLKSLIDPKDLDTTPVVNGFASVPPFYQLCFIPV
# Procedure, shortened: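 NADPH-dependent conversion of Luciferin-H EGE (10uM, at KM) by 5nM enzyme in 50mM KPO4, 60 min at 37C following 10 min compound preincubation. Stopped with luciferin detection buffer; luminescence read after 20 min.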
# [2] = qHTS for Inhibitors of Plasmodium falciparum (DD2) proliferation (AID 504314); also: potency is read from the fitted curve at half-maximal effect;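 as to activity, negative = inhibition: parasite DNA measured by SYBR Green fluorescence after red cell lysis; plate controls were DMSO vehicle for no effect and artemisinin wells for full effect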; conditions: P. falciparum Dd2 in erythrocytes, SYBR Green growth, 72 h; activity, negative = inhibition: at 6.11 µM (top of the series)
# Procedure, shortened: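 SYBR Green DNA-fluorescence growth assay: infected RBCs at 0.3% parasitemia, 2.5% hematocrit, 72 h compound exposure, 37C, 5% CO2; overnight lysis with dye at RT; normalized to 0.29 uM artemisinin and vehicle.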
# [3] = qHTS for Inhibitors of Plasmodium falciparum (GB4) proliferation (AID 504315); also: nearly all actives have a fitted effect of over 50% in size; also: potency is read from the fitted curve at half-maximal effect;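 as to activity change, negative = inhibition: 0% = DMSO vehicle and -100% = 0.29 µM artemisinin control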; conditions: P. falciparum GB4 in erythrocytes, SYBR Green DNA, 72 h; activity change, negative = inhibition: at 6.7 µM (top of the series)
# Procedure, shortened: (§1)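 Parasite growth measured as SYBR Green DNA fluorescence (ex 485, em 535 nm) after overnight lysis following 72 h culture at 37 °C, 0.3% parasitemia, 2.5% hematocrit. Values normalized against DMSO and 0.29 uM artemisinin controls, with plate-stack correction.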
# [4] = qHTS for Inhibitors of Plasmodium falciparum (HB3) proliferation (AID 504318); also: nearly all actives have a fitted effect of over 60% in size; also: potency is read from the fitted curve at half-maximal effect;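 as to activity change, negative = inhibition: 0% = DMSO vehicle and -100% = artemisinin control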; conditions: P. falciparum HB3 in erythrocytes, SYBR Green DNA, 72 h; activity change, negative = inhibition: at 7.21 µM (top of the series)
# Procedure, shortened: as §1
# [5] = qHTS for Inhibitors of Plasmodium falciparum (CP250) proliferation (AID 504320); also: potency is read from the fitted curve at half-maximal effect
# Procedure, shortened: as §1
# [6] = qHTS for Inhibitors of Plasmodium falciparum (7G8) proliferation (AID 504316); also: nearly all actives have a fitted effect of over 65% in size; also: potency is read from the fitted curve at half-maximal effect;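 as to activity change, negative = inhibition: 0% = DMSO vehicle and -100% = 0.29 µM artemisinin full kill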; conditions: P. falciparum 7G8 in erythrocytes, SYBR Green DNA, 72 h; activity change, negative = inhibition: at 6.7 µM (top of the series)
# Procedure, shortened: as §1
# Tags tell the direction and shape of the fitted curve.
structure (smiles),measurement,setting,value
CNc1ccccc1C(=O)OCC(C)=O,Potency,[1],inactive
same,Potency,[2],"inconclusive: 6.7 nM [activator, full curve, poor fit]"
same,Potency,[3],inactive
CCO[C@H](c1cc(OC)cc([N+](=O)[O-])c1OC)[C@H](C)[C@@H](OC)[C@H](C)C=CCC(=O)OC,Potency,[2],inactive
same,Potency,[3],"inconclusive: 4260 nM [inhibitor, single point]"
same,Potency,[4],"inconclusive: 4150 nM [inhibitor, single point]"
same,Potency,[5],"inconclusive: 3010 nM [inhibitor, partial curve, poor fit]"
COC(=O)[C@@H]1CC[C@H](C)[C@@H](c2ccc(C)cc2)N1C(=O)c1ccc(C=NOC[C@H]2O[C@H](c3ccccc3)C=C[C@H]2Oc2ccc(OC)cc2)cc1,Potency,[2],"inconclusive: 3360 nM [inhibitor, single point]"
same,Potency,[3],"inconclusive: 2390 nM [inhibitor, single point]"
same,Potency,[4],"inconclusive: 3700 nM [inhibitor, single point]"
same,Potency,[5],"inconclusive: 1510 nM [inhibitor, single point]"
COCC1=Cc2cc3c(cc2C(C(C(=O)OC)C(=O)OC)N1C(=O)OC)OCO3 (stereo not drawn),Potency,[2],inactive
same,Potency,[6],inactive
C[C@H]1Cc2c(COc3ccccc3)nc3c(c2CO1)CN(S(=O)(=O)c1ccc(C#N)cc1)CC3,"activity, negative = inhibition",[2],inactive: -2.85% [at 1.12 µM]
same,Potency,[6],"inconclusive: 4780 nM [inhibitor, partial curve, poor fit]"
same,Potency,[4],"inconclusive: 4780 nM [inhibitor, single point]"
COc1cccc([C@H]2Oc3ccc(OC)cc3C(=NO[C@H](C)c3cn([C@H](CO)Cc4ccccc4)nn3)[C@H]2O)c1,Potency,[2],"inconclusive: 1340 nM [inhibitor, partial curve, poor fit]"
same,Potency,[6],"inconclusive: 849 nM [inhibitor, partial curve]"
same,Potency,[4],inactive
O=C1Nc2cccc(Br)c2[C@@]12O[C@H](COc1ccccc1)CC1=CCC[C@H]12,Potency,[2],inactive
same,Potency,[6],"inconclusive: 1070 nM [inhibitor, partial curve, poor fit]"
same,Potency,[4],"inconclusive: 1900 nM [inhibitor, partial curve, poor fit]"
CCc1cc2c(nc1CC)CCN(CCC(C)=NOC[C@@H](O)COCc1ccco1)C2,Potency,[2],"inconclusive: 2120 nM [inhibitor, partial curve, poor fit]"
same,Potency,[6],active: 1510 nM
same,Potency,[4],"inconclusive: 3550 nM [inhibitor, partial curve, poor fit]"
O=C1CCCC(C(C(=O)OCc2ccccc2)C(=O)OCc2ccccc2)C1 (stereo not drawn),Potency,[2],"inconclusive: 1500 nM [inhibitor, partial curve, poor fit]"
same,Potency,[6],inactive
same,Potency,[4],inactive
C[C@H]1CC[C@H]2C(=O)N(Cc3ccccc3)C[C@@H](O)CN2[C@H]1c1ccc(Br)cc1,Potency,[2],"inconclusive: 1500 nM [inhibitor, partial curve, poor fit]"
same,Potency,[6],"inconclusive: 1510 nM [inhibitor, partial curve]"
same,Potency,[4],"inconclusive: 1690 nM [inhibitor, partial curve]"
CCCC[C@]12Cc3cc(C#N)ccc3[C@H](O1)c1c(cc(-c3ccccc3)oc1=O)O2,Potency,[2],"inconclusive: 4240 nM [inhibitor, single point]"
same,Potency,[6],"inconclusive: 2390 nM [inhibitor, single point]"
same,Potency,[4],"inconclusive: 2130 nM [inhibitor, single point]"
CC=Cc1cc2ccccc2c2c(C(=O)OC)c(C(=O)OC)c(C(=O)OC(C)(C)C)n12,Potency,[2],"inconclusive: 1690 nM [inhibitor, partial curve]"
same,Potency,[6],"inconclusive: 2690 nM [inhibitor, single point]"
same,Potency,[4],"inconclusive: 1690 nM [inhibitor, partial curve]"
C=C(CCN1C=C(C(=O)OCC)C(c2ccccc2)NC1=O)c1ccc(Cl)cc1 (stereo not drawn),Potency,[2],"inconclusive: 4240 nM [inhibitor, single point]"
same,Potency,[6],"inconclusive: 426 nM [inhibitor, single point]"
same,Potency,[4],"inconclusive: 1690 nM [inhibitor, partial curve, poor fit]"
COC(=O)C1=C(C(=O)OC)[C@@H]2N(C)c3ccccc3[C@@]23CCC(=O)N(Cc2ccc4c(c2)OCO4)C3=N1,Potency,[2],"inconclusive: 4240 nM [inhibitor, partial curve, poor fit]"
same,Potency,[6],"inconclusive: 1690 nM [inhibitor, single point]"
same,Potency,[4],"inconclusive: 1510 nM [inhibitor, partial curve, poor fit]"
